Test results as given in the supplement of paper PMC12645437, “Orthogonal IMiD-Degron Pairs Induce Selective Protein Degradation in Cells” (ACS Chemical Biology, 2025).
Some of the results follow.

Target: no compound (DMSO)
Assay: log2 fold change of degron read counts, EGFP-low vs EGFP+ sorted cells; higher = lower degron-EGFP level without compound (poor expression or instability)
Details: compound: DMSO control; 18 h
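Further: jurkat cells carrying a lentiviral library of mutant zinc finger degrons fused to EGFP plus mCherry, mCherry+ cells FACS sorted, degron abundance counted by next-generation sequencing.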

| Sequence | log2 fold change of degron read counts |
| --- | --- |
| LSCEICGFWCTQKGNLLRHIKL | 0.991 |
| FCCNVCGAVFTQKGNLLRHIKL | -0.355 |
| LLCPICGFECTQKGNLLRHIKL | 0.526 |
| FKCEVCGAGFTQKGNLLRHIKL | -1.57 |
| FSCNVCGAIFTQKGNLLRHIKL | 0.035 |
| FGCEICGRRFTQKGNLLRHIKL | -0.511 |
| FCCSVCGHAFTQKGNLLRHIKL | -0.7 |
| FFCEICGAPFTQKGNLLRHIKL | -0.255 |
| FACDQCGAIFTQKGNLLRHIKL | -1.59 |
| FYCEQCGAWFTQKGNLLRHIKL | 0.264 |
| FHCEICGRDFTQKGNLLRHIKL | -1.72 |
| FTCPQCGASFTQKGNLLRHIKL | -0.943 |
| FDCPICGHMFTQKGNLLRHIKL | -1.04 |
| FHCNQCGHSFTQKGNLLRHIKL | -0.651 |
| FNCPVCGAAFTQKGNLLRHIKL | -0.728 |
| FDCEICGRKFTQKGNLLRHIKL | -1.52 |

| Sequence | log2 fold change of degron read counts |
| --- | --- |
| FDCDICGAQFTQKGNLLRHIKL | -2.05 |
| FACPICGRDFTQKGNLLRHIKL | -0.334 |
| FNCEICGHKFTQKGNLLRHIKL | -1.23 |
| FMCSVCGHYFTQKGNLLRHIKL | -0.313 |
| FACEICGHPFTQKGNLLRHIKL | -0.597 |
| LYCPICGFYCTQKGNLLRHIKL | 1.69 |
| LQCEICGFVCTQKGNLLRHIKL | -0.89 |
| FICNQCGRFFTQKGNLLRHIKL | 0.438 |
| FVCNQCGRQFTQKGNLLRHIKL | -0.806 |
| LVCEICGFLCTQKGNLLRHIKL | 0.0415 |
| FCCEICGHWFTQKGNLLRHIKL | 0.0287 |
| FRCDVCGAEFTQKGNLLRHIKL | -2.61 |
| FACEICGHLFTQKGNLLRHIKL | -0.954 |
| FDCPICGAWFTQKGNLLRHIKL | -0.0354 |
| FYCNICGATFTQKGNLLRHIKL | -0.16 |
| FLCPVCGADFTQKGNLLRHIKL | -1.05 |
